Numbering of substitutions follows the chain as printed.
What was measured:
[1] = biological target: T1, human IL-23 (Sino Biological, CT048-H08H) (human, UniProt Q9NPF7 20-189; P29460 23-328); assay: cell-based or functional assay
T1 sequence (looked up) 1: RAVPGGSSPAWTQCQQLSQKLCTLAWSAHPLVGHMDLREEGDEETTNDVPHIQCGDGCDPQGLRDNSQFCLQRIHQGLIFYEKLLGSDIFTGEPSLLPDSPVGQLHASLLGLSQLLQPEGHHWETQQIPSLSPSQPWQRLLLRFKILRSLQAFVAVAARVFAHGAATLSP
T1 sequence (looked up) 2: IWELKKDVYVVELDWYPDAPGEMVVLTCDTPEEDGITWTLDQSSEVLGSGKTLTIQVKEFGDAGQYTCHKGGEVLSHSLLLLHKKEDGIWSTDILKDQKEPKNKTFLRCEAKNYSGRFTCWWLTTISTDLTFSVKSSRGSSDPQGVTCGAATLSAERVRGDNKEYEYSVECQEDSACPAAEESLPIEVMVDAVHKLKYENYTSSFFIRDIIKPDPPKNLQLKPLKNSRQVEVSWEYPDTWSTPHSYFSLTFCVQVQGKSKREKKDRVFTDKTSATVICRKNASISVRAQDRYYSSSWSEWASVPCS

[2] = biological target: T2, IL-23 (R&D Systems, 1290-IL-010) (UniProt Q9NPF7 20-189; P29460 23-328); assay: cell-based or functional assay
T2 sequence (looked up) 1: T1 sequence (looked up) 1
T2 sequence (looked up) 2: T1 sequence (looked up) 2

[3] = biological target: T1, human IL-23 (Sino Biological, …); assay: SPR (Biacore), Protein A capture of sample, 1:1 model
Experimental: (§1) A certain amount of test sample was subjected to affinity capture by a biosensor chip Protein A (GE, 29127556), and then antigens at a series of concentration gradients were allowed to flow on the surface of the chip. The reaction signals were detected in real time by using Biacore (GE, 8 K) to obtain association and dissociation curves. After the dissociation was completed for each cycle, the biochip was washed and regenerated with a 10 mM glycine-hydrochloric acid solution at pH 1.5 (GE, BR-1003-54). Fitting was performed based on the experimental data using BlAevaluation version 4.1 software with a 1:1 model, and affinity values were obtained.

[4] = biological target: mouse BAFF (Acro Biosystems, BAF-M521y) (mouse, UniProt Q9WU72 127-309, limits assumed); assay: as above
Sequence of UniProt Q9WU72 (Q9WU72 127-309 limits assumed): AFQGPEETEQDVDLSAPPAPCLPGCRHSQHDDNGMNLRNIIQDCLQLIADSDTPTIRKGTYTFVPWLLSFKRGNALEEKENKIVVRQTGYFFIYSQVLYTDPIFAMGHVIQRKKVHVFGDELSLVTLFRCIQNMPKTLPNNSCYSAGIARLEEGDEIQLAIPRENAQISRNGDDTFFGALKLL
Experimental: as §1

[5] = biological target: T3, human APRIL (R&D Systems, 5860-AP-010/CF) (human, UniProt O75888 105-250, limits assumed); assay: as above
T3 construct: the B cell assay names 'R&D Systems, 5860-AP'; also called APRIL protein
T3 sequence (looked up): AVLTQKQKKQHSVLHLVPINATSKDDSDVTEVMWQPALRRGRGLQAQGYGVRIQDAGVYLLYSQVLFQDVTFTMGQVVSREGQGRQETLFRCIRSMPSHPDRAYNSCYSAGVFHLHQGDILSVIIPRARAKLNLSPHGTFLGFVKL
Experimental: as §1

[6] = biological target: T4, human BAFF (Sino Biological, 10056-HNCH) (human, UniProt Q9Y275 in part); assay: as above
T4 construct: also called BAFF protein
T4 sequence (Q9Y275 134-285 limits assumed): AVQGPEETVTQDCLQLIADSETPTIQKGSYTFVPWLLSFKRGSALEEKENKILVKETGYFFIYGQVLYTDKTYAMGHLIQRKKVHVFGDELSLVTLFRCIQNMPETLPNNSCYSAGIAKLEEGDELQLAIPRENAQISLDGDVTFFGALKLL
Experimental: as §1

[7] = biological target: cynomolgus monkey BAFF (Kactus, BAF-CM412) (cynomolgus monkey, UniProt A0A2K5V2X4 134-285); assay: as above
Experimental: as §1

[8] = biological target: T5, mouse APRIL (R&D Systems, 7907-AP/CF) (mouse, UniProt Q9D777 96-241, limits assumed); assay: as above
T5 sequence (looked up): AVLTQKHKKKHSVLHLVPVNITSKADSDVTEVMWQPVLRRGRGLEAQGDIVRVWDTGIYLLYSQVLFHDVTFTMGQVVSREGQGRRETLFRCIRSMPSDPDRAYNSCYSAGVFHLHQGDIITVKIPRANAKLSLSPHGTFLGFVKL
Experimental: as §1

[9] = biological target: cynomolgus monkey APRIL (Kactus, APR-CM410B) (cynomolgus monkey); assay: as above
Experimental: as §1

[10] = biological target: cynomolgus monkey IL-23 (Acro Biosystems, ILB-CM52W8) (cynomolgus monkey, UniProt H6WS56 20-189); assay: as above
Experimental: as §1

[11] = biological target: BAFF (R&D Systems, 7537-BF); assay: cell-based or functional assay
[12] = biological target: T3, human APRIL (R&D Systems, …); assay: cell-based or functional assay
[13] = biological target: T1, human IL-23 (Sino Biological, …); assay: ELISA, sample coated, IL-23 titrated, anti-His-HRP
Experimental: The specific procedures are as follows:
The test sample was diluted to 2 μg/mL with a PBS (BasalMedia, B320) buffer at pH 7.4 and added to a 96-well microplate (Coming, 3590) at 100 μL/well. The plate was incubated at 4° C. overnight. After the liquid was discarded, 5 % skim milk (BD, 232100) diluted with PBS was added at 300 μL/well for blocking, and the mixture was incubated at 37° C. for 2 h. After the blocking was completed, the blocking solution was discarded, and the plate was washed 3 times with a PBST buffer (pH 7.4, PBS containing 0.1 % tween-20). […] After the incubation, the plate was washed 3 times with PBST. […] After the plate was washed 3 times with PBST, a TMB chromogenic substrate (KPL, 5120-0077) was added at 100 μL/well, and the mixture was incubated at room temperature for 10⁻¹⁵ min, and then 1 M H₂SO₄ was added at 50 μL/well to terminate the reaction. The absorbance values at 450 nm were taken using a microplate reader. The binding curves of antibodies to antigens were fitted using software, and the EC₅₀ values were calculated.

B1: Hu29-19T (other)
heavy: STSCREEQGEFYDHLLRDCISCASICGQHPKQCAAFCEGGGGSGGGGSGGGGSQVTLKESGPVLVKPTETLTLTCTVSGFSLTNYAISWVRQPPGKGLEWLGVIWTGGGTNYNSGIKSRLTISKDNSKSQVVLTMTNMDPVDTARYYCVREGDYGSYAGAMDYWGQGTTVTVSSASTKGPSVFPLAPSSKSTSGGTAALGCLVKDYFPEPVTVSWNSGALTSGVHTFPAVLQSSGLYSLSSVVTVPSSSLGTQTYICNVNHKPSNTKVDKKV[here human IgG1 Fc with changes without letters]GGGSSTSCREEQGEFYDHLLRDCISCASICGQHPKQCAAFCESS
light: DIVLTQSPDSLAVSLGERATINCRASESVDYYGISSMHWFQQKPGQPPKLLIYRASNLESGIPARFSGSGSRTDFTLTISSLQAEDVAVYYCQQANKDPYTFGGGTKVEIKRTVAAPSVFIFPPSDEQLKSGTASVVCLLNNFYPREAKVQWKVDNALQSGNSQESVTEQDSKDSTYSLSSTLTLSKADYEKHKVYACEVTHQGLSSPVTKSFNRGEC
notes: anti-IL23 IgG1 with a TACI polypeptide at the N- and the C-terminus of each heavy chain; also called anti-IL23 antibody fusion protein
B1 was tested, and the “Activity in inhibiting proliferation of BaF3-IL-23R cells (IC50, nM)” value [1] was 0.139 nM, the “IC50 for inhibiting IL-17 secretion” value [2] was 0.0165 nM and the Kd [3] was 0.0169 nM. It also gave a koff [3] of 4e-05 s⁻¹, a kon [3] of 2.37e+06 M⁻¹ s⁻¹ and a Kd [4] of 0.0237 nM. It also gave a koff [4] of 7.79e-05 s⁻¹, a kon [4] of 3.29e+06 M⁻¹ s⁻¹ and a Kd [5] of 0.0103 nM. For the same binder, the koff [5] was 0.00189 s⁻¹, the kon [5] was 1.84e+08 M⁻¹ s⁻¹ and the Kd [6] was 0.0224 nM. It also gave a koff [6] of 7.08e-05 s⁻¹, a kon [6] of 3.16e+06 M⁻¹ s⁻¹ and a Kd [7] of 0.149 nM. It also gave a koff [7] of 0.000101 s⁻¹, a kon [7] of 678000 M⁻¹ s⁻¹ and a Kd [8] of 0.018 nM. It also gave a koff [8] of 0.00036 s⁻¹, a kon [8] of 2e+07 M⁻¹ s⁻¹ and a Kd [9] of 0.0039 nM. The koff [9] was 6.05e-05 s⁻¹, the kon [9] was 1.55e+07 M⁻¹ s⁻¹ and the Kd [10] was 0.0718 nM. For the same binder, the koff [10] was 0.00019 s⁻¹, the kon [10] was 2.65e+06 M⁻¹ s⁻¹ and the “Activity in inhibiting proliferation of B cells (IC50, pM), BAFF” value [11] was 5.18 pM. For the same binder, the “Activity in inhibiting proliferation of B cells (IC50, pM), APRIL” value [12] was 8.11 pM and the EC50 [13] was 1.43 nM.

B2: Hu29-24T (other)
heavy: STSCREEQGEFYDHLLRDCISCASICGQHPKQCAAFCEGGGGSGGGGSGGGGSQVTLKESGPVLVKPTETLTLTCTVSGFSLTQYAISWVRQPPGKGLEWLGVIWTGGGTNYNSGIKSRLTISKDNSKSQVVLTMTNMDPVDTARYYCVREGDYGSYAGAMDYWGQGTTVTVSSASTKGPSVFPLAPSSKSTSGGTAALGCLVKDYFPEPVTVSWNSGALTSGVHTFPAVLQSSGLYSLSSVVTVPSSSLGTQTYICNVNHKPSNTKVDKKV[here human IgG1 Fc with changes without letters]GGGSSTSCREEQGEFYDHLLRDCISCASICGQHPKQCAAFCESS
light: B1 light with E17Q
notes: as for B1
With B2 the “Activity in inhibiting proliferation of BaF3-IL-23R cells (IC50, nM)” value [1] was 0.232 nM, the “IC50 for inhibiting IL-17 secretion” value [2] was 0.0128 nM and the Kd [3] was 0.0145 nM. It also gave a koff [3] of 4.22e-05 s⁻¹, a kon [3] of 2.91e+06 M⁻¹ s⁻¹ and a Kd [4] of 0.0277 nM. For the same binder, the koff [4] was 7.14e-05 s⁻¹, the kon [4] was 2.58e+06 M⁻¹ s⁻¹ and the Kd [5] was 0.0104 nM. For the same binder, the koff [5] was 0.00224 s⁻¹, the kon [5] was 2.15e+08 M⁻¹ s⁻¹ and the Kd [6] was 0.02 nM. It also gave a koff [6] of 5e-05 s⁻¹, a kon [6] of 2.51e+06 M⁻¹ s⁻¹ and a Kd [7] of 0.0755 nM. The koff [7] was 4.4e-05 s⁻¹, the kon [7] was 583000 M⁻¹ s⁻¹ and the Kd [8] was 0.02 nM. It also gave a koff [8] of 0.000207 s⁻¹, a kon [8] of 1.04e+07 M⁻¹ s⁻¹ and a Kd [9] of 0.0694 nM. It also gave a koff [9] of 0.000498 s⁻¹, a kon [9] of 7.18e+06 M⁻¹ s⁻¹ and a Kd [10] of 0.0605 nM. The koff [10] was 0.00015 s⁻¹, the kon [10] was 2.47e+06 M⁻¹ s⁻¹ and the “Activity in inhibiting proliferation of B cells (IC50, pM), BAFF” value [11] was 4.78 pM. For the same binder, the “Activity in inhibiting proliferation of B cells (IC50, pM), APRIL” value [12] was 4.8 pM and the EC50 [13] was 1.52 nM.
